Source: PMC4336329 (PLoS ONE, 2015)
Out of some 310,000 compounds screened, about 2,200 (0.71%) showed an effect of 50% or more. The effect is printed as a negative number. The list shows a part of the results.

The molecules below were run against human ether-à-go-go-related gene (hERG) potassium channel (human, UniProt Q12809) (assay: primary screen, population patch clamp on CHO cells stably expressing hERG).
Sequence of human ether-à-go-go-related gene (hERG) potassium channel (Q12809 whole entry, looked up): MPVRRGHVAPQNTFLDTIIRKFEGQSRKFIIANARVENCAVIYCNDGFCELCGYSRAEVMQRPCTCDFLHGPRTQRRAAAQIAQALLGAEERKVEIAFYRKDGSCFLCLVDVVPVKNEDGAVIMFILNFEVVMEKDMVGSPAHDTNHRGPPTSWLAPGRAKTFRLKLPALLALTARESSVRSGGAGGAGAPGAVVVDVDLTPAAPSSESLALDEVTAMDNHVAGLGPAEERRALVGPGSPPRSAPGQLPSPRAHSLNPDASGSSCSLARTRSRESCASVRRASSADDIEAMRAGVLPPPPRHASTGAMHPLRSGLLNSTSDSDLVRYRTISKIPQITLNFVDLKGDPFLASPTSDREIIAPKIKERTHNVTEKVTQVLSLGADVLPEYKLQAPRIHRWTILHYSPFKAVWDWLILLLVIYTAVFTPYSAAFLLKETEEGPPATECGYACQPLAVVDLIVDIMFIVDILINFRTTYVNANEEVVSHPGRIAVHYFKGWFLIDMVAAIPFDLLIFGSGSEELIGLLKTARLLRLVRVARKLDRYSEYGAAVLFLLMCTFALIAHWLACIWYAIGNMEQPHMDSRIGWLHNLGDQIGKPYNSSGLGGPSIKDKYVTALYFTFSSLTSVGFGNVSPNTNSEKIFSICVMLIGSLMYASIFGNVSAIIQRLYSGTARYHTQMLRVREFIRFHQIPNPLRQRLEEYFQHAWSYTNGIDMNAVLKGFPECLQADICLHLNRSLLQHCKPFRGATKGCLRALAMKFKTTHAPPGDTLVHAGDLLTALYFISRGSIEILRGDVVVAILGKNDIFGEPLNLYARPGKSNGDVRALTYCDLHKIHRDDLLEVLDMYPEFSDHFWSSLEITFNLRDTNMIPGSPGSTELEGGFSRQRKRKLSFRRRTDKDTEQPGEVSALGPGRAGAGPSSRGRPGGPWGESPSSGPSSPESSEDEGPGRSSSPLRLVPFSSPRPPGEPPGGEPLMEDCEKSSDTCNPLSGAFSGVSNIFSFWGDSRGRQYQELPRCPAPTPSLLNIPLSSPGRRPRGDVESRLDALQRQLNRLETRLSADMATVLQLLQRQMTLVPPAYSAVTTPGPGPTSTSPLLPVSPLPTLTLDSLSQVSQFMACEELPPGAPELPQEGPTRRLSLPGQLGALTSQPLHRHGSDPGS
`COc1cccc(C2C(C(N)=O)=C(C)Nc3nc(CCCO)nn32)c1` (stereo not drawn) was tested, and the “hERG current change (%, negative = inhibition) at 1uM” value was 7.53%.
`Cc1cc(NC(=O)Nc2ccc(OCc3ccccc3)cc2)n(C)n1` was tested, and the “hERG current change (%, negative = inhibition) at 1uM” value was 25.2%.
In the case of `C=C(C)Cn1c(SCCN2CCOCC2)nc2c1c(=O)[nH]c(=O)n2C`, the “hERG current change (%, negative = inhibition) at 1uM” value is reported as 2.02%.
For `COc1ccc(S(=O)(=O)NCC2CCCO2)cc1Cl` (stereo not drawn), the “hERG current change (%, negative = inhibition) at 1uM” value was 6.29%.
`Cn1c(=O)c2c(nc(SCc3ccc(C(=O)O)cc3)n2C)n(C)c1=O` was tested, and the “hERG current change (%, negative = inhibition) at 1uM” value was 13.1%.
In the case of `Cc1ccc(C)c(NC(=O)NNC(=O)c2ccc3ccccc3c2O)c1`, the “hERG current change (%, negative = inhibition) at 1uM” value is reported as 10.4%.
`COc1ccc(NC(=O)Cc2csc(NC(=O)Nc3ccccc3OC)n2)c(OC)c1` was tested, and the “hERG current change (%, negative = inhibition) at 1uM” value was 1.43%.
With `Cc1nc2cc(NC(=O)NC(C)(C)C)ccc2n1C` the “hERG current change (%, negative = inhibition) at 1uM” value was 8.53%.
In the case of `COc1ccc(/C=C/C(=O)c2c(C)cc(C)[nH]c2=O)c2ccccc12`, the “hERG current change (%, negative = inhibition) at 1uM” value is reported as 11.3%.
`COCCN(C(=O)COC(=O)CSc1ccccc1)c1c(N)n(Cc2ccccc2)c(=O)[nH]c1=O` was tested, and the “hERG current change (%, negative = inhibition) at 1uM” value was 11.8%.
In the case of `C#CCOCCOCCOCCNc1nc(N2CCN(C(=O)Cn3cc(CCC[NH+]=C(N)N)nn3)CC2)nc(N2CCN(C(=O)[C@H](C(C)C)n3cc(CCO)nn3)CC2)n1.[Cl-]`, the “hERG current change (%, negative = inhibition) at 1uM” value is reported as 9.28%.
For `O=C(NC1(C(F)(F)F)C(=O)Nc2c1c(=O)[nH]c(=O)n2-c1ccccc1)c1ccncc1` (stereo not drawn), the “hERG current change (%, negative = inhibition) at 1uM” value was 4.12%.
For `Cc1cc(=O)[nH]c(-c2ccccc2O)n1`, the “hERG current change (%, negative = inhibition) at 1uM” value was -4.57%.
With `COc1ccc2cc3cc(C(=O)N4CCCCC4C)oc3nc2c1` (stereo not drawn) the “hERG current change (%, negative = inhibition) at 1uM” value was 11.1%.
For `CC(C)[NH+]1CCC2(CC1)C(C#N)=C(N)NC([S-])=C2C#N`, the “hERG current change (%, negative = inhibition) at 1uM” value was -14.8%.
In the case of `CCCC(=O)Nc1nnc(SCC(=O)NCc2cccs2)s1`, the “hERG current change (%, negative = inhibition) at 1uM” value is reported as 11.3%.
In the case of `C=CCC1Cc2c(Br)cccc2C(CC=C)N1` (stereo not drawn), the “hERG current change (%, negative = inhibition) at 1uM” value is reported as 5.53%.
`CCN(CC(=O)N(CC(C)C)c1c(N)n(CC(C)C)c(=O)[nH]c1=O)Cc1nc2ccccc2c(=O)[nH]1` was tested, and the “hERG current change (%, negative = inhibition) at 1uM” value was 12%.
In the case of `COc1cc2c(cc1OC)C(C)=NCC2`, the “hERG current change (%, negative = inhibition) at 1uM” value is reported as 11%.
With `Cc1ccc(N2CCN(C(=S)c3ccc(-c4cccc([N+](=O)[O-])c4)o3)CC2)cc1` the “hERG current change (%, negative = inhibition) at 1uM” value was 12.4%.
In the case of `COc1ccccc1NC(=O)c1cc(OC)c(OC)cc1[N+](=O)[O-]`, the “hERG current change (%, negative = inhibition) at 1uM” value is reported as 13.5%.
`COc1ccc(CNc2cccc(C)n2)c(O)c1` was tested, and the “hERG current change (%, negative = inhibition) at 1uM” value was 7.06%.
In the case of `N#Cc1ccccc1OCC(=O)Nc1ccc2c(c1)OCCO2`, the “hERG current change (%, negative = inhibition) at 1uM” value is reported as 5.64%.
For `COc1cc(C(=O)NCc2ccccc2)cc(Br)c1OC`, the “hERG current change (%, negative = inhibition) at 1uM” value was 11.3%.
